Test results: PMC5679597
These are yes or no findings as the source states them, for the method shown. In cells and extracts the contact can be indirect. Some results given as binding are weak or reduced against the parent protein; the word gives no strength. Sequences can lack the tags named with a protein.

Sequences of proteins named here, by UniProt entry; tags and fusion partners are left off.
UniProt Q13136: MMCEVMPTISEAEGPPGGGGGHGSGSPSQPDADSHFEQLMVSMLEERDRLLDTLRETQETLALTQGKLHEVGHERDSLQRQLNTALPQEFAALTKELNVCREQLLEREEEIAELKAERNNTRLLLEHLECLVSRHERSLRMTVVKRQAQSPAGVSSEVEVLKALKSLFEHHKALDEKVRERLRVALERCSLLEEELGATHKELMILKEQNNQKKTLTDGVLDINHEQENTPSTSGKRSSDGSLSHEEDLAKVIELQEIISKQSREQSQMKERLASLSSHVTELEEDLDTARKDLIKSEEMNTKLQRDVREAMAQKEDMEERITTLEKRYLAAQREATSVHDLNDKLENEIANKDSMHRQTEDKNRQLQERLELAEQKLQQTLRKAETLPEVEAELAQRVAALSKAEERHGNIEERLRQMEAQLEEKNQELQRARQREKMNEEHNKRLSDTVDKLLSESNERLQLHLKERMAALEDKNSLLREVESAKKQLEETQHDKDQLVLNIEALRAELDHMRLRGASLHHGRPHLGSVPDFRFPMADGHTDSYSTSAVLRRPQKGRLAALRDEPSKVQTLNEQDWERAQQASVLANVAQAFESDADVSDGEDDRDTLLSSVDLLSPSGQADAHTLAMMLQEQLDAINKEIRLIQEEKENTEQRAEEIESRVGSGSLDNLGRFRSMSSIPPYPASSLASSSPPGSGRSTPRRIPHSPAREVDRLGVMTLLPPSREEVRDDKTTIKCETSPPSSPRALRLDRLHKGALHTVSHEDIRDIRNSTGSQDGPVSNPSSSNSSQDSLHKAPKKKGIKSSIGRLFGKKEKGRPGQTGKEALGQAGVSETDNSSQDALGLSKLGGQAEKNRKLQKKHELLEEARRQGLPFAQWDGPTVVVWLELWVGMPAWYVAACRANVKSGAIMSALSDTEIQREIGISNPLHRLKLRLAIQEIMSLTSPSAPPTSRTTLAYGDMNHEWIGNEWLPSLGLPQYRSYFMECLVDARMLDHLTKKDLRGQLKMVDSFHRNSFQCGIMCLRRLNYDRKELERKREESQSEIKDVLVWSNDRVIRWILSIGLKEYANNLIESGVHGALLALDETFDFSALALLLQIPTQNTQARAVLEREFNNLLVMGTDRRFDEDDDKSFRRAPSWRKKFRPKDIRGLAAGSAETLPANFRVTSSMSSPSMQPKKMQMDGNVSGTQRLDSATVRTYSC

T1: GFP-tagged MID2 (Fig 5E) (human) (UniProt Q9UJV3)
T1 sequence: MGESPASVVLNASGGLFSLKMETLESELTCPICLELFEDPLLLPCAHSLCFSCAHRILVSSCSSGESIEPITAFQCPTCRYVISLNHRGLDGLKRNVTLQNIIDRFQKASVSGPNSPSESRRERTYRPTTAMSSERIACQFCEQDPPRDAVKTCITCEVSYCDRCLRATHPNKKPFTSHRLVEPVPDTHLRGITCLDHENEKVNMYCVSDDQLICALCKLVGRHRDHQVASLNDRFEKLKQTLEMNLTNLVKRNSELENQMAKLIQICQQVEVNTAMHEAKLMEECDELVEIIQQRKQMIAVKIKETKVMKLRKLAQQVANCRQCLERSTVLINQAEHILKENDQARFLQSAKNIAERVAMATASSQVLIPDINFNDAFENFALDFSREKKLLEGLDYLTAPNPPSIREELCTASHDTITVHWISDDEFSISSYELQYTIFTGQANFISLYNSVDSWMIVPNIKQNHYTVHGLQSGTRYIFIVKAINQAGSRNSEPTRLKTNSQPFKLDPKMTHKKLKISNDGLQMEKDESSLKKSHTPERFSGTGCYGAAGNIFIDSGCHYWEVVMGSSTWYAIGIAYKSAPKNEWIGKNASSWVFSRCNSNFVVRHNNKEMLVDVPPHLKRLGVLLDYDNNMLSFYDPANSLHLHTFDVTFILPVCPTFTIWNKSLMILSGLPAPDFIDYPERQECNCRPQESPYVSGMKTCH

T2: GFP-tagged LNX1p80 (Ligand of Numb protein X1, p80 isoform) (mouse) (UniProt O70263)
T2 sequence: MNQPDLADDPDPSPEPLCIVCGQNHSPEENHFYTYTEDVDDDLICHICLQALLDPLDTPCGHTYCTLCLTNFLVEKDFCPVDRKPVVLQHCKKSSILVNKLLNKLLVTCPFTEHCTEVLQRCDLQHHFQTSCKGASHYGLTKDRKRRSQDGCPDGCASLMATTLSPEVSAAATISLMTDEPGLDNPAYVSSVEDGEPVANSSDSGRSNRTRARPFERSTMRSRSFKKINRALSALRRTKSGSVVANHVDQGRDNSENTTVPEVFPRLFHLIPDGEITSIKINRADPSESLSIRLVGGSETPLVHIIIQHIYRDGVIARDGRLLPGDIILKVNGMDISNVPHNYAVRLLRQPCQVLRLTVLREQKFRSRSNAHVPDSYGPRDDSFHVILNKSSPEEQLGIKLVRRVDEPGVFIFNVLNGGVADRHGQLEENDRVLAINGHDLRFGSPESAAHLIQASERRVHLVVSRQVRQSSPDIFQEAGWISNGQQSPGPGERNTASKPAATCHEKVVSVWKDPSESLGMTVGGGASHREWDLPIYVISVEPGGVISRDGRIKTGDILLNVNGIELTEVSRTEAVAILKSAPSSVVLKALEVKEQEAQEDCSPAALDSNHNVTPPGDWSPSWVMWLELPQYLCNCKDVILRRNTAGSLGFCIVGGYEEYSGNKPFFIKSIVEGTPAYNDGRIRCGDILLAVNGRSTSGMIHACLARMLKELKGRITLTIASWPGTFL

T3: GFP-LNX1 PDZ2 (aa377-470) (mouse) (UniProt O70263)
T3 sequence: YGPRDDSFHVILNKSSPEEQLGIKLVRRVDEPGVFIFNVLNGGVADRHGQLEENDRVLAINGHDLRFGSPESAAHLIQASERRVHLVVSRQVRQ

T4: GFP-LNX1 PDZ1 (aa271-384) (mouse) (UniProt O70263)
T4 sequence: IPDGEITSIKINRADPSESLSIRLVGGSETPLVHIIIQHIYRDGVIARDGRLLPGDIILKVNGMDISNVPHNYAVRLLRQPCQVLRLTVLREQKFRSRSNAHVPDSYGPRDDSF

T5: GFP-tagged LNX2 (mouse) (UniProt Q91XL2)
T5 sequence: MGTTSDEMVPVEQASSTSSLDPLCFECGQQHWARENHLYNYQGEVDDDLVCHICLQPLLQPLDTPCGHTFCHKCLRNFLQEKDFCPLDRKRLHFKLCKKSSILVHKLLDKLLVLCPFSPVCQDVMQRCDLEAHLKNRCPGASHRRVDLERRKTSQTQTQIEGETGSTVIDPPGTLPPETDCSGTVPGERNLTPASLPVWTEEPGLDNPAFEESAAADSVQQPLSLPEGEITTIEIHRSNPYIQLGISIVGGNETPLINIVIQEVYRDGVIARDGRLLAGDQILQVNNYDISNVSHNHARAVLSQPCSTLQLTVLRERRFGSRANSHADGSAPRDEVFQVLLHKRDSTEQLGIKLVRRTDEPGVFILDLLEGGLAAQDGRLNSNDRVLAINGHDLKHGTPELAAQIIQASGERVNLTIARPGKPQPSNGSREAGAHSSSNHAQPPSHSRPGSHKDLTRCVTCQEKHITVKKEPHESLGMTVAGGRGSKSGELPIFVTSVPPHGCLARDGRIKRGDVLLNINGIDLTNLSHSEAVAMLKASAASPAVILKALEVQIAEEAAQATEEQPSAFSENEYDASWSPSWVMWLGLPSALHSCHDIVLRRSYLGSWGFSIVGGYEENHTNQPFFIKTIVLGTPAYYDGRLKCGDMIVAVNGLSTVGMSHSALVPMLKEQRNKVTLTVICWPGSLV


Key:
[1] = target: T1, GFP-tagged MID2 (Fig 5E) (human); test: pull-down; GFP pull-down of GFP-tagged MID2 from cells co-transfected with untagged LNX1p70 and FLAG-liprin-α1, western blot
[2] = target: T2, GFP-tagged LNX1p80 (Ligand of Numb protein X1, p80 isoform) (mouse); test: pull-down; GFP pull-down: GFP-tagged LNX constructs transfected into HEK 293 cells (HEK 293T in Fig 3A) alone or with the partner, captured on GFP-Trap_M beads, western blot; NaCl in the wash up to 500 mM in some cases
[3] = target: T3, GFP-LNX1 PDZ2 (aa377-470) (mouse); test: as above
[4] = target: T4, GFP-LNX1 PDZ1 (aa271-384) (mouse); test: as above
GFP-tagged LNX2 (mouse) = target: T5, GFP-tagged LNX2 (mouse); test: as above
[5] = target: T2, GFP-tagged LNX1p80 (Ligand of Numb protein X1, p80 isoform) (mouse); test: pull-down; GFP pull-down of GFP-LNX1p80 from HEK 293 cells co-transfected with FLAG-MID1 and HA-MID2, western blot

binding [1]	binding [5]	Molecule	binding [2]	binding [3]	binding [4]	binding (GFP-tagged LNX2 (mouse))
no binding		wild-type FLAG-liprin-α1 (from UniProt Q13136 1-1202)	binds	binds		
		SynGAP1, transfected, HA or GST epitope-tagged (Fig 1B) (protein, UniProt Q96PV0 1-1343) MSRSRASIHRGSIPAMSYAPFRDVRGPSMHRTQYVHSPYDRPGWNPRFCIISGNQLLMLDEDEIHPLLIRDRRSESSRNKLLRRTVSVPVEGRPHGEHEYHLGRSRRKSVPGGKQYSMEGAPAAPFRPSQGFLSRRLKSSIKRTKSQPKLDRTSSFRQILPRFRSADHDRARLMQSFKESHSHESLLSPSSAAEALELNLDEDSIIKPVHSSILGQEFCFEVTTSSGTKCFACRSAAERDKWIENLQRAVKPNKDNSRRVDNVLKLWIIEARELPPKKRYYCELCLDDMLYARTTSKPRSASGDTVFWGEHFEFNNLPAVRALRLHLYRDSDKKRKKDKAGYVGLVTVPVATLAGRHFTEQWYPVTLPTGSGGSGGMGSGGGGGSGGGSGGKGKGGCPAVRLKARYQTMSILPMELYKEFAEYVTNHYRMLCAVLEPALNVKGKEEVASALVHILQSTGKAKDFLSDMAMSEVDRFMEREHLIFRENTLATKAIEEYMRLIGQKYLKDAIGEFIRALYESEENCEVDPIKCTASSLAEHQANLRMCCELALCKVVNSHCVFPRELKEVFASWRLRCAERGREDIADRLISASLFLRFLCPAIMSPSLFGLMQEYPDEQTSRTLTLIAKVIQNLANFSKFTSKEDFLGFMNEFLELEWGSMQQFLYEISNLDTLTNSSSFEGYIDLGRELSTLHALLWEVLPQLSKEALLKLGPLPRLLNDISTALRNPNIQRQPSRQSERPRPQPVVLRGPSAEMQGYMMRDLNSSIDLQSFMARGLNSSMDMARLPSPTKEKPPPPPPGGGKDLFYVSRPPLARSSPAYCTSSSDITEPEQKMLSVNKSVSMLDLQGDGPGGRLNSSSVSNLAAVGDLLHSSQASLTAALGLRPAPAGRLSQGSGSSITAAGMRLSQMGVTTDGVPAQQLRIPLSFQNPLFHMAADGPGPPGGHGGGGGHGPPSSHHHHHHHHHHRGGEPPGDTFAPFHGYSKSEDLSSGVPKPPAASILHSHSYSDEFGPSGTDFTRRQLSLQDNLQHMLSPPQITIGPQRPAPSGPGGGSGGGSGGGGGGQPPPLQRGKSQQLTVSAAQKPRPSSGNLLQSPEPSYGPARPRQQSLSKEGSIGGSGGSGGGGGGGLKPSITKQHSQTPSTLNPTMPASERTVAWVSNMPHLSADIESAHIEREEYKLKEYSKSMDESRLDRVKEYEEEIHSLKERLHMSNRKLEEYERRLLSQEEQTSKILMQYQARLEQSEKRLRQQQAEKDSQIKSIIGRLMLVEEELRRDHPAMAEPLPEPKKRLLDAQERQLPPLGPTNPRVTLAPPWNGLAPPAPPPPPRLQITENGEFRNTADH	binds	binds	binds	binds
	binds	HA epitope-tagged MID2 (Fig 5C) (protein, UniProt Q9UJV3-2 1-705) MGESPASVVLNASGGLFSLKMETLESELTCPICLELFEDPLLLPCAHSLCFSCAHRILVSSCSSGESIEPITAFQCPTCRYVISLNHRGLDGLKRNVTLQNIIDRFQKASVSGPNSPSESRRERTYRPTTAMSSERIACQFCEQDPPRDAVKTCITCEVSYCDRCLRATHPNKKPFTSHRLVEPVPDTHLRGITCLDHENEKVNMYCVSDDQLICALCKLVGRHRDHQVASLNDRFEKLKQTLEMNLTNLVKRNSELENQMAKLIQICQQVEVNTAMHEAKLMEECDELVEIIQQRKQMIAVKIKETKVMKLRKLAQQVANCRQCLERSTVLINQAEHILKENDQARFLQSAKNIAERVAMATASSQVLIPDINFNDAFENFALDFSREKKLLEGLDYLTAPNPPSIREELCTASHDTITVHWISDDEFSISSYELQYTIFTGQANFISLYNSVDSWMIVPNIKQNHYTVHGLQSGTRYIFIVKAINQAGSRNSEPTRLKTNSQPFKLDPKMTHKKLKISNDGLQMEKDESSLKKSHTPERFSGTGCYGAAGNIFIDSGCHYWEVVMGSSTWYAIGIAYKSAPKNEWIGKNASSWVFSRCNSNFVVRHNNKEMLVDVPPHLKRLGVLLDYDNNMLSFYDPANSLHLHTFDVTFILPVCPTFTIWNKSLMILSGLPAPDFIDYPERQECNCRPQESPYVSGMKTCH				
